Measured values from PubChem BioAssay AID588855 (National Center for Advancing Translational Sciences (NCATS), 2011).
Where “and” joins values, the source holds several entries; their conditions need not be identical. Equal entries are not always repeated. Out of some 410,000 compounds screened, about 5,000 (1.2%) were called active. Inconclusive results, whose numbers are uncertain, are shown with a selection of clear calls. The call rests on the fitted dose curve; in most records, active means well fitted inhibition curve with a large enough effect; inconclusive means small, poorly fitted or top-dose-only effect; inactive means no such curve, though single readings can be large or run the other way. Where the call is inconclusive, the potency comes from a doubtful curve fit.

Assay: qHTS for Inhibitors of TGF-b; further: nearly all actives have a fitted effect of over 65% in size
Conditions: HepG2 CAGA-GFP TGF-b/SMAD3 reporter, GFP fluorescence, 18 h, TGF-beta stimulated, 500 pg/mL final; series mostly up to 46.1 µM
Outline: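 Inhibition was scored as loss of TGF-beta-induced (500 pg/mL final, 18 hours, 37 degrees C) GFP in HEPG2 cells carrying a CAGA-GFP reporter, in DMEM with 1% FBS. Well GFP was summed per cell; Activity was normalised to unstimulated and stimulated DMSO wells, then concentration-response fitting.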
Potency means the concentration at half of the fitted maximal effect; tags describe the fitted curve by direction and shape.

Structure (SMILES)	Potency
O=C(NC(c1ccccc1)c1ccc2ccccc2n1)C1CCN(Cc2ccc(Oc3ccccc3)cc2)CC1 (stereo not given)	inconclusive: 17.8 µM [inhibitor, single point]
Cc1ccc(NC(=O)Cn2c(=O)c(C)nc3ccccc32)cc1	inactive
CN(c1ccccc1)P(=O)(N(C)c1ccccc1)N(C)c1ccccc1	inconclusive: 15.8 µM [inhibitor, single point]
Cc1cc(C(=O)COC(=O)c2ccc[nH]c2=O)c(C)n1CCc1ccc(F)cc1	inconclusive: 17.8 µM [inhibitor, partial curve, poor fit]
CC(C)Cn1c(SCC(=O)NCc2ccc(Cl)cc2)nnc1-c1cccc(S(=O)(=O)N2CCOCC2)c1	inconclusive: 35.5 µM [inhibitor, single point]
O=C(N/N=C/c1cn(Cc2ccccc2)c2ccccc12)c1cccnc1	active: 2.82 µM
Cc1ccc(S(=O)(=O)NC(=O)c2ccccc2C)cc1	inactive
O=C(c1ccc(C(F)(F)F)cc1)N1CCC(=O)N(C(COCc2ccccc2)Cc2ccccc2)CC1 (stereo not given)	inconclusive: 10 µM [inhibitor, partial curve]
CCOC(=O)CN1CCC(c2ccccc2)CC1	inactive
CCCCCN(C(=O)CCC(=O)OCC(=O)Nc1cccc(SC)c1)c1c(N)n(CCCC)c(=O)[nH]c1=O	inconclusive: 35.5 µM [inhibitor, single point]
O=C1CC(c2nc3ccccc3[nH]2)CN1c1cccc(C(F)(F)F)c1 (stereo not given)	inconclusive: 2.82 µM [inhibitor, full curve, poor fit]
CCN(CC)C(=O)CSc1nc2ccc(NC(=O)CSc3nnc(N)s3)cc2s1	inconclusive: 25.1 µM [inhibitor, single point]
c1ccc2c(NC3CCCC3)nnc(NC3CCCC3)c2c1	inconclusive: 35.5 µM [inhibitor, partial curve, poor fit]
COCCn1c(SCC(=O)NCCc2ccccc2)nc2c([nH]c3ccccc32)c1=O	inconclusive: 35.5 µM [inhibitor, single point]
COc1ccccc1NC(=O)c1c(Nc2ccccc2F)sc(C(=O)Nc2cccc(Cl)c2)c1N	active: 15.8 µM
CCc1ccc(N2CCN(C(=O)N3CCOCC3)CC2)cc1	inactive
COc1cccc(CNc2nc3cc(C(C)=C(C)C)sc3c(=O)n2C)c1	inconclusive: 12.6 µM [inhibitor, single point]
O=c1nc2sc3ccccc3n2c(=O)n1-c1ccc(Cl)c(Cl)c1	inconclusive: 35.5 µM [inhibitor, single point]
CC(=O)N1CCN(CC(c2ccccc2)c2ccccc2)CC1	inconclusive: 3.98 µM [inhibitor, full curve]
CCOC(=O)c1[nH]c2ccc(F)cc2c1NC(=O)CN1CCN(C/C=C/c2ccccc2)CC1	inconclusive: 28.2 µM [inhibitor, single point]
O=C1c2[nH]nc(-c3ccccc3O)c2C(c2ccc(Cl)cc2)N1Cc1ccco1 (stereo not given)	inconclusive: 25.1 µM [inhibitor, single point]
CCc1ccc(-n2c(SCc3ccccc3F)nc3[nH]ncc3c2=O)cc1	inconclusive: 28.2 µM [inhibitor, single point]

Structure (SMILES)	Potency
Fc1ccc(-c2nc3ccc(Br)cn3c2Cc2cccc(F)c2)cc1	active: 12.6 µM
O=C(c1ccc2c(c1)N(Cc1ccccc1F)C(=O)c1ccccc1S2(=O)=O)N1CCCCC1	inconclusive: 3.55 µM [inhibitor, partial curve, poor fit]
Fc1ccc(C2=NN(c3ccccc3)C(c3ccco3)C2)cc1 (stereo not given)	inconclusive: 35.5 µM [inhibitor, single point]
COc1ccc(OC)c(NC(=O)C2CCCN(S(=O)(=O)c3cccc4cccnc34)C2)c1 (stereo not given)	inconclusive: 6.31 µM [inhibitor, single point]
COc1ccc2[nH]c3c(NCCCOC(C)C)ncnc3c2c1	inactive
O=C(NC(Nc1ccccn1)C(Cl)(Cl)Cl)c1ccccc1 (stereo not given)	inconclusive: 35.5 µM [inhibitor, partial curve, poor fit]
C=CCn1c(CNC(=O)c2ccco2)nnc1SCC(=O)c1ccccc1	inconclusive: 0.112 µM [inhibitor, full curve, poor fit]
CC1CCCCN1C(=O)c1cccc(NC2=C(Cl)C(=O)N(Cc3ccccc3)C2=O)c1 (stereo not given)	inconclusive: 17.8 µM [inhibitor, single point]
Nc1ccccc1N=Nc1ccccc1N	inconclusive: 7.94 µM [inhibitor, partial curve, poor fit]
CCOCCCNC(=O)NC(C)c1c(-n2cccc2)sc2c1CCN(CC)C2 (stereo not given)	inconclusive: 35.5 µM [inhibitor, single point]
COc1cccc(NC(=O)CSC2=Nc3ccccc3C3=NC(CC(=O)NCCc4ccccc4)C(=O)N23)c1 (stereo not given)	inconclusive: 35.5 µM [inhibitor, single point]
C#CCOCCOCCOCCNc1nc(N2CCN(C(=O)[C@H](C(C)C)n3cc(CCO)nn3)CC2)nc(N2CCN(C(=O)[C@H](Cc3ccc(O)cc3)n3cc(CCO)nn3)CC2)n1	inactive
CSc1ccc(Cn2c(C)c(C(=O)NCc3ccc(Cl)c(Cl)c3)sc2=O)cc1	inconclusive: 11.2 µM [inhibitor, partial curve, poor fit]
O=C(C1CCN(c2nnc(-n3cccc3)s2)CC1)N1CCN(c2cccc(C(F)(F)F)c2)CC1	inconclusive: 7.08 µM [inhibitor, single point]
Cc1cccc(Nc2nc(N)c([N+](=O)[O-])c(N3CCC(C)CC3)n2)c1	active: 14.1 µM
O=C(CSc1nc2ccccc2c(=O)n1CCCN1CCOCC1)NCCc1ccccc1	inactive
CC(C)Oc1cccc(C(=O)NC(=S)Nc2cccc(C(F)(F)F)c2)c1	inconclusive: 10 µM [inhibitor, partial curve]
O=S1(=O)CCOC[C@H](CC2CCCCC2)N1Cc1ccccc1F	inconclusive: 17.8 µM [inhibitor, single point] and inconclusive: 15.8 µM [inhibitor, single point]
COc1ccc(CCCNC(=O)C2Cc3c(-c4ccccc4)ccnc3O2)cc1 (stereo not given)	inconclusive: 35.5 µM [inhibitor, single point]
O=C(O)C(=Cc1ccc([N+](=O)[O-])cc1)CCc1ccccc1	inconclusive: 35.5 µM [inhibitor, single point]
CCOc1ccc(OCc2cccc(C(=O)N(CC)CC)c2)cc1	inconclusive: 6.31 µM [inhibitor, single point]
CC(C)CCC1=NN(C(=O)c2ccco2)C(O)(C(F)(F)F)C1 (stereo not given)	inactive

Structure (SMILES)	Potency
COc1cc(NC(=O)Cc2ccc(S(=O)(=O)N3CCOCC3)s2)c(OC)cc1Cl	inactive
COc1ccc(-n2c(/C=C/c3ccccc3F)nc3cc(OC)c(OC)cc3c2=O)cc1Cl	inactive
CCN(CC)C(=O)C1CCN(S(=O)(=O)c2ccc3c(c2)CCCN3C(C)=O)CC1	inconclusive: 10 µM [inhibitor, partial curve]
CN1CCN(C(=S)NC(=O)/C=C/c2ccccc2)CC1	inconclusive: 35.5 µM [inhibitor, single point]
[O-]/C(=C(\C(=S)NCc1ccc2c(c1)OCO2)[n+]1ccccc1)c1ccc(Cl)s1	inconclusive: 20 µM [inhibitor, single point]
CCOc1ccc(C(c2c(NC(=O)c3ccco3)sc(C)c2C)N2CCOCC2)cc1 (stereo not given)	inconclusive: 8.91 µM [inhibitor, partial curve, poor fit]
Cc1ccc(NC(=O)Nc2ccc3c(c2)OCO3)nc1	inactive
C=C(C)COC(=O)C1CC2OC2CC1C(=O)OCC(=C)C (stereo not given)	inactive
O=C(NCc1ccc(F)cc1)c1ccc(CSCc2cccc(Cl)c2)o1	inconclusive: 22.4 µM [inhibitor, single point]
Cc1ccc(F)c(S(=O)(=O)NC(=O)C2(C)CCN2C(=O)Cc2cc(F)ccc2F)c1 (stereo not given)	inactive
CCn1c(NC(=O)c2cccc(Cn3cc(Cl)cn3)c2)nc2ccccc21	inconclusive: 12.6 µM [inhibitor, single point]
O=S(=O)(NC1CC1)c1ccc(S(=O)(=O)N2CCCC(c3nc(-c4cccnc4)no3)C2)cc1 (stereo not given)	inconclusive: 15.8 µM [inhibitor, single point]
CCCn1c(N)c(C(=S)NC(=O)C2CC2)c(=O)n(C)c1=O	inactive
Cc1cc(CNC(=O)COc2ccc(F)cc2)c2ccccc2n1	inconclusive: 25.1 µM [inhibitor, single point]
Cc1ccc2nc(-c3ccsc3)c(Nc3ccccc3C)n2c1	inactive
NC(=S)NN=C1CCCCCCCCC1	inactive
COC(=O)c1ccc(/C=N/n2c(C)nc3ccccc3c2=O)cc1	inconclusive: 35.5 µM [inhibitor, partial curve, poor fit]
CCn1cc(CNCc2cn(C)nc2-c2ccc(C3CCCCC3)cc2)cn1	inconclusive: 20 µM [inhibitor, partial curve, poor fit]
COc1ccccc1NC(=O)c1oc2ccccc2c1NC(=O)c1cc(OC)c(OC)c(OC)c1	inconclusive: 14.1 µM [inhibitor, single point]
Cc1ccc(N=C2NC(=O)/C(=C/c3cn(C)c4ccccc34)S2)cc1C	inactive
Cc1ccc(S(=O)(=O)N2CC3(O)CN(C(=O)OC(C)C)N(C(=O)OC(C)C)CC3(OC(=O)NCc3ccccc3F)C2)cc1 (stereo not given)	inconclusive: 35.5 µM [inhibitor, single point]
